Source: PubChem BioAssay AID624417 (National Center for Advancing Translational Sciences (NCATS), 2012)
In all, about 410,000 compounds went through this assay and about 6,400 (1.6%) were called active. This list was built around the results that the source calls inconclusive (neither active nor inactive); the mix of calls is not that of the screen. The call rests on the fitted dose curve; in most records, active means well fitted inhibition curve with a large enough effect; inconclusive means small, poorly fitted or top-dose-only effect; inactive means no such curve, though single readings can be large or run the other way. No potency is given beside an inconclusive call; the fits are too rough.

target: Glucagon-like peptide 1 receptor (Homo sapiens) (UniProt P43220); assay: qHTS of GLP-1 Receptor Inverse Agonists (Inhibition Mode); conditions: HEK293 GLP-1R CRE-luciferase, luminescence, 24 h, GLP-1R form is constitutively active; activity change, negative = inhibition: at 38.3 µM (top of the series) unless noted; further: nearly all actives have a fitted effect of over 55% in size
UniProt P43220, sequence (P43220 whole entry, looked up): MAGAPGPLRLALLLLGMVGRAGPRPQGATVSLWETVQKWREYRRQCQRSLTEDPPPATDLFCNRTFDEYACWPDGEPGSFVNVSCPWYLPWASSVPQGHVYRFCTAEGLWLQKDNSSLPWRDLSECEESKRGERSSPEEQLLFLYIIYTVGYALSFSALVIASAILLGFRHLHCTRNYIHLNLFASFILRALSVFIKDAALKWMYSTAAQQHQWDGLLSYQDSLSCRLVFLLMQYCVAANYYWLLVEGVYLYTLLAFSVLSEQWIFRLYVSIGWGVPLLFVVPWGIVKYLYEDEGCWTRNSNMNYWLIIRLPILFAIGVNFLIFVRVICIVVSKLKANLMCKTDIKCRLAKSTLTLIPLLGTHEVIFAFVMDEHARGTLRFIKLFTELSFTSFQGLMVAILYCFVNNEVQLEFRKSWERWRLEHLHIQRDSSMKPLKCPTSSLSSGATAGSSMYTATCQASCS
Method in brief: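 Inverse agonists were sought by their lowering of basal cAMP reporter luciferase output in HEK293 cells stably carrying constitutively active human GLP-1R, after 24 h compound treatment.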
On the % scale 0 is the no-effect control and ±100 the full control effect; potency means the concentration at half of the fitted maximal effect; tags describe the fitted curve by direction and shape.

Compound	Potency	activity change, negative = inhibition
COc1cc(/C=N/N=C(N)N)ccc1OCc1ccc(Cl)cc1	inconclusive [inhibitor, partial curve, poor fit]	–
C=CCN(c1ccccc1)S(=O)(=O)c1cccc(C(=O)Nc2ccc(N3CCOCC3)cc2)c1	inconclusive [inhibitor, partial curve, poor fit]	–
Cc1ccc2c(c1)c(N=O)c(O)n2Cc1ccc(Cl)cc1	inconclusive [inhibitor, single point]	–
Cc1ccc(S(=O)(=O)N2[C@@H](c3ccccc3)C(C(=O)O)=CC[C@H]2c2cccs2)cc1	inconclusive [inhibitor, partial curve, poor fit]	–
COc1ccccc1-n1cnc2cc(NCc3ccco3)ccc21	inconclusive [inhibitor, full curve, poor fit]	–
O=C(Nc1cccc(-n2cnnn2)c1)C1CCCN(Cc2cccc(C(F)(F)F)c2)C1 (configuration not stated)	inconclusive [inhibitor, partial curve, poor fit]	–
CC(C)N(Cc1cn(C)nc1-c1cccc(Cl)c1)Cc1nccn1C	inconclusive [inhibitor, partial curve, poor fit]	–
CN(C)c1cc(N/N=C\c2ccccc2)nc(N(C)C)n1	inconclusive [inhibitor, single point]	–
CCC(=O)N1CCCC(C(=O)c2ccc(-c3ccccc3)cc2)C1 (configuration not stated)	inconclusive [inhibitor, partial curve, poor fit]	–
Cc1c(C(=O)Nc2ccccn2)sc2nc3n(c(=O)c12)CCC3	inconclusive [inhibitor, single point]	–
C=CCn1c(C)cc(C(=O)COc2ccc(N(C)S(=O)(=O)c3ccc(NC(C)=O)cc3)cc2)c1C	inconclusive [inhibitor, single point]	–
Cc1noc(C)c1S(=O)(=O)N1CCCC(C(=O)NCCc2ccccc2)C1 (configuration not stated)	inconclusive [inhibitor, single point]	–
CS(=O)(=O)c1ccc(Cl)c(NC(=O)COC(=O)C23CC4CC(CC(C4)C2)C3)c1	inconclusive [inhibitor, full curve, poor fit]	–
O=C(CCNc1ccc(F)cc1)c1cccc([N+](=O)[O-])c1	–	inactive: 0%
CC(C)Nc1nc(NCCN2CCCC2)c2sc(-c3ccccc3)cc2n1	inconclusive [inhibitor, single point]	–
CCCC[C@@H]1C[C@H]1[C@@H](NC(=O)c1ccco1)c1ccc(C(=O)OC)cc1	inconclusive [inhibitor, single point]	–
C[C@@H](CN1CCC[C@H]1CN1C(N)=NC[C@@H]1Cc1ccccc1)N1C[C@@H](Cc2ccccc2)N(CCc2ccc(Cl)c(Cl)c2)C1=N	–	inactive: -12%
O=C(CN1C(=O)CSc2ccc(S(=O)(=O)N3CCCCC3)cc21)NCc1ccccc1	inconclusive [inhibitor, full curve]	–
Cc1nnsc1C(=O)N1CCC(CO)(Cc2ccccc2Cl)CC1	inconclusive [inhibitor, single point]	–
CC(C)(C)SCCNC(=O)c1ccc(Cl)c(S(=O)(=O)N2CCOCC2)c1	inconclusive [inhibitor, partial curve, poor fit]	–
CN(C)S(=O)(=O)Oc1ccsc1C(=O)Nc1ccc(Cl)cc1	inconclusive [inhibitor, partial curve, poor fit]	–

Compound	Potency	activity change, negative = inhibition
O=C(CCCc1ccccc1)NCCCc1ccccc1	inconclusive [inhibitor, single point]	–
CC(=O)N/N=c1\sc2ccccc2n1C	–	inactive: 6.44%
O=C(NNC1=NCCC1)c1cccc(Br)c1	–	inactive: -2.4%
O=C(Nc1ccc(-c2nc3cc(Cl)ccc3o2)cc1)c1cc(Br)ccc1Cl	–	inactive: -9.93%
CCOc1ccc2nc(N(CCN(C)C)C(=O)/C=C/c3cccs3)sc2c1	inconclusive [inhibitor, partial curve]	–
CCOC(=O)c1cc(-c2ccccc2)n(CCCC(=O)Nc2ccc(C)c(Cl)c2)c1C	inconclusive [inhibitor, single point]	–
COc1cccc2oc3cc(C#Cc4ccccn4)ccc3c(=O)c12	–	inactive: 65.7%
CCC(Oc1ccccc1C)C(=O)N1CCCN(C)CC1 (configuration not stated)	inconclusive [inhibitor, full curve, poor fit]	–
C=CCOC(=O)C1=C[C@H](c2csc3ccccc23)[C@@H](CCCO)[C@H](OCC)O1	inconclusive [inhibitor, single point]	–
CCCCOCCCNC(=O)C[C@@H]1C[C@@]2(C(=O)OCC)CCC=C2N(Cc2ccc(Cl)cc2Cl)C1=O	inconclusive [inhibitor, single point]	–
O=C(NCCC1CCCCN1S(=O)(=O)c1ccc(Cl)cc1)C(=O)NCc1cccnc1 (configuration not stated)	inconclusive [inhibitor, partial curve, poor fit]	–
Cc1ccc(C)c(NC(=O)CSc2nc3nccnc3c(=O)n2CCc2c[nH]c3ccccc23)c1	inconclusive [inhibitor, single point]	–
Cc1c(C)c(C)c(S(=O)(=O)NCCC(=O)N2CCN(Cc3ccc(C#N)cc3)CC2)c(C)c1C	inconclusive [inhibitor, single point]	–
CCc1cc(C(c2ccc(F)cc2)N2CCOCC2)c(NC(=O)c2ccccc2)s1 (configuration not stated)	inconclusive [inhibitor, partial curve, poor fit]	–
CCCCc1cc(=O)oc2c3c(cc(OCC(=O)NCCCO)c12)OC(C)(C)CC3	–	inactive: 72.6%
CCc1cccc(NC(=O)c2cnc(N3CCOCC3)c3ccccc23)c1	inconclusive [inhibitor, partial curve]	–
O=C(Nc1cc(Sc2ccccn2)cc([N+](=O)[O-])c1)c1cccc(F)c1	inconclusive [inhibitor, single point]	–
O=C(CCCN1CCN(c2ccccn2)CC1)c1ccc(F)cc1	–	inactive: -7.9%
CN(CC(=O)Nc1cccc(F)c1)C(=O)c1cccc(S(=O)(=O)N2CC3(C)CC2CC(C)(C)C3)c1 (configuration not stated)	inconclusive [inhibitor, single point]	–
CC(C)OCCCNC(=O)c1cn(C)c2ccc(S(=O)(=O)N(C)C3CCCCC3)cc2c1=O	inactive	–
Cc1ccc(NCC(O)C(O)C(O)CO)c(N=Nc2ccccc2)c1C (configuration not stated)	inconclusive [inhibitor, single point]	–

Compound	Potency	activity change, negative = inhibition
CC(C)n1c(NCc2ccc(Cl)cc2)nc2ccccc21	inconclusive [inhibitor, partial curve, poor fit]	–
O=S(=O)(Nc1ccc2c(c1)OCCO2)c1ccc2oc3ccccc3c2c1	–	inactive: 0%
COc1ccccc1C(=O)NC(=S)NC12CC3CC(CC(C3)C1)C2	–	inactive: -32.2%
COc1ccc(C2CC(O)(c3ccccc3)Oc3cc(OC)cc(OC)c32)cc1 (configuration not stated)	inconclusive [inhibitor, single point]	–
O=C(Nc1ccnn1C1CCN(C/C=C/c2ccccc2)CC1)c1ccccc1	inconclusive [inhibitor, partial curve, poor fit]	–
COc1cccc(Cn2nnc(C(=O)NCc3ccccc3Cl)c2N)c1	inconclusive [inhibitor, single point]	–
Cc1ccc(S(=O)(=O)N2CCCCC2c2cccnc2)c(C)c1C (configuration not stated)	inconclusive [inhibitor, single point]	–
O=c1[nH][nH]cc1C=Nc1cc(Cl)ccc1O	inconclusive [inhibitor, single point]	–
COc1ccc(/C=N/n2c(SC)nnc2-c2ccccc2)c(OC)c1OC	inconclusive [inhibitor, single point]	–
CCOC(=O)c1ccc(NC(=O)c2nc[nH]c2C(=O)NCCNC(=O)c2[nH]cnc2C(=O)Nc2ccc(C(=O)OCC)cc2)cc1	–	inactive: -1.92%
Cn1cnc([N+](=O)[O-])c1Sc1ccc(Br)cc1	inconclusive [inhibitor, partial curve, poor fit]	–
Cc1ccc(CNc2nc(-c3ccco3)nn2C(=O)c2ccccc2[N+](=O)[O-])cc1	inconclusive [inhibitor, single point]	–
COc1ccc(NS(=O)(=O)c2cc(NC(=O)c3cccs3)ccc2N2CCCC2)cc1	inconclusive [inhibitor, partial curve]	–
COc1ccc(S(=O)(=O)N(C)C[C@H]2OCc3cnnn3CCCC(=O)N([C@H](C)CO)C[C@H]2C)cc1	–	inactive: 8.78%
CCCCN(CC)CCNC(=S)Nc1ccc2nc(N3CCN(C)CC3)cc(C)c2c1	inconclusive [inhibitor, full curve, poor fit]	–
CC1Oc2ccccc2OC1(O)c1ccc2ccccc2n1 (configuration not stated)	inconclusive [inhibitor, single point]	–
Nc1[nH]c(C(=O)c2ccccc2)c(-c2ccc(Cl)cc2Cl)c1C(=O)NCCc1c[nH]c2ccccc12	inconclusive [inhibitor, single point]	–
CCCCN(C)CCC(=O)Nc1ccc2c(c1)CCC2	inconclusive [inhibitor, full curve, poor fit]	–
O=C1c2[nH]nc(-c3ccccc3O)c2C(c2cccc(OCc3ccccc3)c2)N1CCCO (configuration not stated)	inconclusive [inhibitor, single point]	–
COc1ccc(-c2cc3cc4c(cc3cn2)OCO4)cc1	inconclusive [inhibitor, partial curve, poor fit]	–
